ChEMBL document CHEMBL1201862, “PubChem BioAssay data set” (2004)

tested on: NCI-H322M; test: inhibition of tumour cell growth, NCI panel, 48 h

Compound	GI50
O=C1Cc2ccccc2N1/N=C\c1ccc([N+](=O)[O-])cc1	inactive: > 100 µM
CC/C(=N\NC(=O)c1cccnc1)c1ccc2c(c1)OCCO2	inactive: > 100 µM
Cc1ccc2c(=O)c3c(O)c4c(cc3n(C)c2c1)OC(C)(C)C=C4	inactive: > 10 µM
CC(C)(CN1CCCCC1)C(/C=C/c1ccc(Cl)cc1)=N\NC(=O)N/N=C(/C=C/c1ccc(Cl)cc1)C(C)(C)CN1CCCCC1	inactive: 12.4 µM
N#Cc1c(O)cc(=O)n2c1[nH]c1ccccc12	inactive: > 100 µM
NCCc1c[nH]c2ccc(OC(=O)C(=O)O)cc12	inactive: > 100 µM
NC(=O)c1csc(C2CCC(CO)O2)n1 (configuration not stated)	inactive: > 100 µM
Nc1ncnc2c1ncn2C1CCC(CP(=O)(O)O)C1 (configuration not stated)	inactive: > 100 µM
NNC(=O)Cn1c2ccc(Br)cc2c2nc3ccccc3nc21	inactive: 3.75 µM
O=C(Cc1ccc(OCc2cccc(Cl)c2)cc1)NO	inactive: 19.5 µM
COc1cccc2c1-c1c(OC)cccc1SS2	inactive: 23.9 µM
CN(C(=O)c1ccc2c(c1)sc1c(=O)n(C)c3ccccc3c12)c1ccccc1	inactive: > 100 µM
CN(C)Cc1cc(O)c(O)c(CN(C)C)c1	inactive: 26.4 µM
COc1ccc(C2C(=O)c3ccc(OC)cc3OC2c2cccnc2)cc1 (configuration not stated)	inactive: > 100 µM
CCOC(=O)Nc1ccc2c(c1)N(C(=O)CCN(CC)CC)c1ccccc1S2 [ETHACIZINE]	inactive: 36.6 µM
O=C1c2ccccc2-c2nc(/C=C/c3ccccc3)cc3c2c1nc1ccccc13	inactive: 31.8 µM
COc1ccc(C2C3=C(COC3=O)OC(C)(C)Oc3cc4c(cc32)OCO4)cc1OC (configuration not stated)	inactive: > 66.4 µM
Cc1c(C(=O)CSc2nc3ccccc3[nH]2)c(=O)n(-c2ccccc2)n1C	inactive: > 100 µM
Cc1c2cccc(Sc3ccccc3)c2c2c3c(cccc13)[S+](c1ccccc1)C2 (configuration not stated)	inactive: 3.91 µM
Cc1nc(N)c(N2CCNCC2)c(O)n1	inactive: > 100 µM
CN1C(=O)[C@@H]2[C@@H]3c4ccccc4N[C@@H]3c3[nH]c4ccccc4c3[C@@H]2C1=O	inactive: 31 µM
CN(CC(=O)O)c1ccc(/C=C/c2ccnc3ccccc23)cc1	inactive: 10 µM
CC(=O)CNC(=O)OC(C)(C)C	inactive: > 100 µM

Compound	GI50
COc1ccc(OC/C(N)=N/NC(=O)c2ccncc2)cc1	inactive: > 100 µM
COC(=O)C1=COC2OC3C(C(C)O)C(=O)OC34C=CC1C24 (configuration not stated)	inactive: > 100 µM
Cc1ccc(NC(=O)CCc2nnc(S)[nH]2)cc1	inactive: > 100 µM
Clc1ccc(NCNC2Nc3ccccc3N2)cc1Cl	inactive: > 100 µM
COc1cc2c(Cc3cc(OCc4ccccc4)ccc3N)nccc2c(OC)c1OC	inactive: > 10 µM
COc1ccc(-c2c3c(n(C4OC(CO)C(O)C(O)C4O)c(=S)c2C#N)CCCC3)cc1 (configuration not stated)	inactive: > 100 µM
C[N+](C)(C)C1=NNC2=Nc3ccccc3SC2=C1	inactive: 15.1 µM
COc1ccc2c(c1)-c1oc3ccccc3c(=O)c1CO2	inactive: 52.2 µM
Cn1c(=O)c2c(n(C)c1=O)n1c(=O)c3ccccc3nc1n2C	inactive: > 100 µM
O=c1oc2cccnc2n1CCCCN1CCN(c2ccccc2)CC1	inactive: > 100 µM
O=c1c(Br)cc2nc3ccccc3sc-2c1Br	inactive: > 100 µM
COc1cccc(OC)c1C(=O)OCc1ccccc1	inactive: > 100 µM
Cc1ccc(-c2n[nH]c(=O)[nH]2)cc1	inactive: > 100 µM
C=CCCCCOC1C=CC(O)C(CO)O1 (configuration not stated)	inactive: > 100 µM
O[C@H]1[C@H](O)[C@@H](Cn2nnc(-c3ccccc3)c2-c2ccccc2)OCO[C@@H]1Cn1nnc(-c2ccccc2)c1-c1ccccc1	inactive: 7.08 µM
C/C1=C\CC[C@@]2(C)O[C@@H]2C[C@@H](C2(C)CO2)CC/C(C)=C/CC1 (some centres not stated)	inactive: 19.9 µM
O=C1CCC2(CCC(=O)NC2=O)C(=O)N1	inactive: > 100 µM
Cc1cc2nc(C=C(C(F)(F)F)C(F)(F)F)sc2cc1C	inactive: 2.13 µM
CCC(C(=O)c1ccccc1)C(CCCC(=O)Nc1c(C)cccc1C)N=O (configuration not stated)	inactive: > 100 µM
CCOC(=O)CCc1c(C)c2c(OC(C)=O)cc(OC(C)=O)cc2oc1=O	inactive: 48.2 µM
C=C(Cl)C(C)(Cl)CCC(Cl)C(C)C (configuration not stated)	inactive: > 100 µM
c1ccc2c(c1)ncn2CCn1ccnc1	inactive: > 100 µM
COc1cccc2c1CCc1c(-c3ccc(F)cc3)cc(-c3ccc4ccccc4n3)nc1-2	inactive: > 100 µM

Compound	GI50
O=C1CCCCC2N(C(c3ccccc3)c3ccccc3)CC[C@@]12c1ccccc1.O=C1CCCC[C@H]2N(C(c3ccccc3)c3ccccc3)CC[C@@]12c1ccccc1 (some centres not stated)	inactive: > 10 µM
Cc1ccc(S(=O)(=O)c2ccc(N)cc2)cc1	inactive: > 100 µM
COc1ccc(-n2c3c(c4cc(O)ccc42)Cc2ccccc2C3=O)cc1	inactive: 77.8 µM
N#Cc1nc(-c2cnccn2)oc1N	inactive: > 100 µM
O=c1[nH]c(=O)n([C@H]2C[C@H](O)[C@@H](CO)O2)cc1Br [BROXURIDINE]	inactive: > 100 µM
CC(C)=CC(=O)c1[nH]c2ccccc2c1CC(=O)NCCc1cn(C(c2ccccc2)(c2ccccc2)c2ccccc2)cn1	inactive: 3.96 µM
N/C(=N/c1ccc(O)cc1)S(=O)(=O)O	inactive: > 100 µM
CC(C)CCn1nc(N)c2nc3ccccc3nc21	inactive: > 100 µM
COc1cc([C@@H]2c3cc4c(c(O[C@@H]5O[C@H]6CO[C@@H](C)O[C@H]6[C@H](O)[C@@H]5O)c3C[C@H]3COC(=O)[C@@H]32)OCO4)cc(OC)c1O	inactive: 12.6 µM
O=C1Oc2ccccc2C(=O)/C1=C/N1C(=O)CNC1=S	inactive: > 100 µM
Cc1ccc(S(=O)(=O)O/N=C2\CCC\C2=C/c2ccccc2)cc1	inactive: 14.1 µM
CSc1c(C#N)c2n(c3ccccc13)c1ccccc1[n+]2C	inactive: 34 µM
CCN(CC)C1=Nc2ccccc2-n2c(C)cnc2C1	inactive: > 100 µM
Cc1cc2nc3c(C#N)c(-c4ccccc4)cc(Nc4ccc(Cl)cc4)n3c2cc1C	inactive: > 100 µM
OCCc1cnco1	inactive: > 100 µM
C[C@@H](CO)C1=C(O)C(=O)c2c(ccc3c2CCCC3(C)C)C1=O	inactive: 42.6 µM
CCOC(=O)c1c(Br)c(-c2ccc(Br)cc2)c(Br)n1C	inactive: 57 µM
O=C(Nc1cccc([N+](=O)[O-])c1)/C(=N\NC(=O)c1ccncc1)c1nc2ccc([N+](=O)[O-])cc2nc1O	inactive: > 100 µM
FC(F)(F)c1cccc(/C=N/C23CC4CC(CC(C4)C2)C3)c1	inactive: > 100 µM
CC(=O)NC1=C(C)C(=O)c2c(nc3n2CCC3OC(=O)c2ccccc2)C1=N (configuration not stated)	inactive: 3.14 µM
COc1cc2ccc3c4cc(OC)c(OC(C)C)cc4cnc3c2cc1OC	inactive: > 100 µM
Nc1nc(-c2ccccc2)c(-c2ccccc2)c(-c2nc(N)nc(-c3ccccc3)c2-c2ccccc2)n1	inactive: 90.2 µM
Cc1c2ncccc2c(C)c2c1[nH]c1ccc(O)cc12	inactive: 3.24 µM

Compound	GI50
O=C(Nc1nc2ccc([N+](=O)[O-])cc2s1)C(=O)C(C1OC(=O)c2ccccc21)[N+](=O)[O-] (configuration not stated)	inactive: > 100 µM
O=C(N/N=C\c1cccc2ccccc12)Nc1ccc([N+](=O)[O-])cc1	inactive: 14.1 µM
O=C(c1nc2ccc(Cl)cc2[nH]c1=O)C(O)c1ccco1 (configuration not stated)	inactive: > 100 µM
Cc1ccccc1C(=N)c1ccccc1Cc1cccc2ccccc12	inactive: 31.8 µM
CNC(=O)c1ccccc1-[s+]1c2ccccc2c(=O)n1C (configuration not stated)	inactive: > 100 µM
CNC(=O)OCc1c(COC(=O)NC)c(-c2ccc(Cl)c(Cl)c2)n2c1SCC2	inactive: 9.2 µM
COc1cc(CNc2nc3cc(C(F)(F)F)ccc3nc2C(=O)O)cc(OC)c1OC	inactive: 23.2 µM
O=C1CC2C(=O)C1C(C(=O)O)C2C(=O)O (configuration not stated)	inactive: > 100 µM
CC(=O)OCCCCn1cnc2c(Cl)nc(Nc3ccccc3)nc21	inactive: > 100 µM
COC(=O)[C@@H](NS(=O)(=O)CC12CCC(CC1)C2(C)C)C(C)(C)C	inactive: > 100 µM
CC(C)[C@@H]1NC(=O)[C@H]2N=C(O[C@@H]2C)[C@@H]2CCCN2C(=O)[C@H](Cc2ccccc2)NC(=O)[C@@H]2CSC(=N2)[C@@H](Cc2ccccc2)NC(=O)[C@@H]2CSC1=N2	inactive: > 50 µM
CC1=CC(=O)C(C(O)(C(F)(F)F)C(F)(F)F)C(C)(C)C1 (configuration not stated)	inactive: > 10 µM
CCCCC1CC(c2cccc([N+](=O)[O-])c2)=NO1 (configuration not stated)	inactive: > 100 µM
CC(=O)OC(C)c1cc2c(s1)C(=O)c1ccsc1C2=O (configuration not stated)	inactive: 1.46 µM
Cc1cc(N(CCC#N)CCC#N)ccc1/C=C/C(=O)Nc1cccc(Cl)c1	inactive: > 100 µM
N#Cc1sc2c(c1OC(=O)c1cccs1)c(=O)n(-c1ccccc1)c(=S)n2-c1ccccc1	inactive: 33 µM
CCN1C(c2ccccc2)=CC(c2ccccc2)(C(Cl)(Cl)Cl)C=C1c1ccccc1	inactive: 33.2 µM
CCCCC1c2c([nH]c3ccccc23)C2C(=O)N(c3ccc(OC)cc3)C(=O)C2C1CCC (configuration not stated)	inactive: > 10 µM
Brc1ccc2[nH]c3c(C4=NCCC4)nccc3c2c1	inactive: 14.5 µM
O=C(c1ccco1)N(Cc1ccco1)C(=S)Nc1ccccc1	inactive: 41.9 µM
COC1(OC)CC2C(=O)N(Cc3ccccc3)C1CC2S(=O)(=O)c1ccccc1 (configuration not stated)	inactive: > 100 µM
Cc1c2oc3c(C)ccc(C(=O)NC4C(=O)NC(C(C)O)C(=O)N5CCCC5C(=O)N(C)CC(=O)N(C)C(C(C)C)C(=O)OC4C)c3nc-2c(C(=O)NC2C(=O)NC(C(C)O)C(=O)N3CCCC3C(=O)N(C)CC(=O)N(C)C(C(C)C)C(=O)OC2C)c(N)c1=O (configuration not stated) (I: TTP[Sar][NMeV] / II: TTP[Sar][NMeV]; ester I:1-I:C, II:1-II:C; linker I:N-II:N via Actinocin(9to1); configuration not given here)	active: 0.526 µM
N#Cc1c(-c2ccccc2)cc(Nc2ccc(F)cc2)n2c1nc1ccccc12	inactive: 2.13 µM

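All cell lines were grown in 96-well plates and treated with compound for 48 hours. GI50: concentration for 50% inhibition of growth.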 Activity calls are given as the source filed them. Rule as the data show it: active = GI50 up to about 1.1 µM and inactive = higher. Numbered stars: 1 amine (or outer) side, 2 acyl side, 3 side chain; on linkers, the order of the positions; unused ones are H or OH. Bridge positions count the residues as written; N and C are the ends. Square brackets hold non-standard residues; d marks the D form. Peptide text beside a SMILES is read from it. I, II: the chains in the order shown. Actinocin(9to1) = Cc1c2oc3c(C)ccc(C(=O)[*:1])c3nc-2c(C(=O)[*:2])c(N)c1=O; NMeV = CN[CH](C(=O)O)C(C)C; Sar = CNCC(=O)O
